Test results published in PubChem BioAssay (NCI).
Values joined by “and” are separate entries in the source; they are usually repeats but may differ in a detail not shown here. Equal entries are not always repeated.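 Growth conditions: 96-well plates. Treatment: test compound, 48 hours, 5 concentrations. Analysis: linear interpolation between bracketing concentrations; unreached endpoints set to highest concentration. At the GI50, growth is halved. TGI marks complete inhibition of growth.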

test system: NCI-H322M lung; assay: inhibition of tumour cell growth, NCI panel, 48 h

SMILES	GI50 [µM]	TGI
O=c1n(CC2CO2)c(=O)n(CC2CO2)n1CC1CO1 (centres undefined)	24.8	> 96.3 µM
CC(=O)c1cccc(Nc2nc3ccccc3c3occc23)c1		> 100 µM
CCCCCCCC(=O)SCC/C=C/[C@@H]1CC(=O)NCc2cccc(n2)C2=N[C@@](C)(CS2)C(=O)N[C@@H](C(C)C)C(=O)N1	0.797	> 33.3 µM
COc1ccc(-c2cc(-c3ccc(Nc4nc(Nc5ccccc5)nc(Nc5ccc(Cl)cc5)n4)cc3)nc(N)c2C#N)cc1	2.26	> 50 µM
CS(=O)(=O)OCCCCOS(=O)(=O)CF		> 100 µM
CCOC(=O)c1ncn2c1[nH]c(=S)c1ccccc12		> 100 µM
CC(=O)Oc1c(C)c2c(c3ncccc13)OC(C)C2 (centres undefined)		33.9 µM
CC(=O)OC1COC(n2c(=S)n(-c3ccc(C)cc3)c(=O)c3ccccc32)C(OC(C)=O)C1OC(C)=O (centres undefined)		> 100 µM
O=C(Nc1ccc(I)cc1)c1cc([N+](=O)[O-])ccc1O	7.46	> 100 µM
c1ccc(C(C2=Nc3cccc4cccc(c34)N2)c2ccccc2)cc1		76.8 µM
N#CC(C#N)=c1ccc(=C2NCC3CCCN23)cc1 (centres undefined)		> 100 µM
C1=CC2C=CC(C=C1)P2c1ccccc1 (centres undefined)		> 100 µM
C=Cc1nc2c(Cl)ncnc2n1Cc1ccccc1		23.1 µM
CC1(C)OC(=O)C(=Cc2ccc(O)cc2)C(=O)O1		> 100 µM
NC(CCCCCCCCCCP(=O)(O)O)C(=O)O (centres undefined)		> 100 µM
O=C1N(C2CCCCC2)C(=O)N1C1CCCCC1		29 µM
CC(C)=CCCc1c(C)ccc2c1C(=O)C(=O)C(C(C)C)=C2		> 22 µM
CC(=O)NC1=C(NCC(C)(C)C)C(=O)c2ccccc2C1=O		> 100 µM
O=C1NNC(=O)c2ccccc2SSc2ccccc2C(=O)NNC(=O)c2ccccc2SSc2ccccc21	15	50 µM and > 100 µM
COc1ccc(/C=C\c2cc(OC)c3c(c2)OCO3)c(O)c1O		> 65.2 µM
O[C@H]1[C@H]2c3cc4c(cc3CN3CCC(=C[C@@H]1O)[C@H]23)OCO4		9.52 µM
Cn1c2ccc([N+](=O)[O-])cc2c(=O)n1Cc1ccccc1F		> 100 µM
S=C(N1CCN(c2ccc(Cl)c(Cl)c2)CC1)N1CCN(c2ccc(Cl)c(Cl)c2)CC1		25.6 µM
N#Cc1cccc2c1Sc1ccccc1N2		> 100 µM
CCOC(=O)C1=C(C)CC2C(=O)OC(=O)C2C1(C)C (centres undefined)		> 100 µM
CCc1ccc2c(c1)C(=O)c1c-2n(CCCBr)c(=O)c2cc([N+](=O)[O-])ccc12	> 50	> 50 µM

SMILES	GI50 [µM]	TGI
Cc1ccc(S(=O)(=O)NC(=O)NC(CC(N)=O)C(=O)O)cc1 (centres undefined)		> 100 µM
CCOc1ccccc1-n1c(CN2CCN(C(=O)COc3ccc(CNCCCCCCN4C5CCCC4CC(OC(=O)Nc4cc(C)ccc4OC)C5)cc3)CC2)nc2ccccc2c1=O (centres undefined)	1.73	3.46 µM
CC1=NN(c2nc(N)nc(/C(C#N)=C/c3ccccc3O)n2)C(C)(C)C1		48.1 µM
CC1=C(C(=O)Nc2ccc(F)c(Cl)c2)C(c2ccc(Cl)cc2)NC(=O)N1 (centres undefined)	19.9	43.5 µM
C=C(C)[C@@H]1CCC2=C[C@@H](OC2=O)[C@@H](C(=C)C)C2=CC(C(=O)O)=C(C1)O2		> 100 µM
Cc1c2n(c(=O)[nH]c1=O)C1OC(CO)C(O2)C1N=[N+]=[N-] (centres undefined)		> 100 µM
Nc1cc2nc3ccccc3sc-2cc1=O	3.84	14.9 µM
COC1(c2ccc(Cl)cc2)SC=C(C)n2c1noc2=O (centres undefined)		> 100 µM
COC(=O)NC(Nc1ccccn1)(C(F)(F)F)C(F)(F)F		> 100 µM
COc1cc(NC(C)c2ccc3c(c2)OCCO3)cc(OC)c1OC (centres undefined)		> 100 µM
N/C(=N\N=C/c1ccc(O)c(O)c1O)NO		42 µM
CSC1=C(C#N)C(=S)N=C(N)C1C(=O)Nc1ccc(C)cc1 (centres undefined)		> 100 µM
Cc1cc(=O)n2[nH]c(-c3ccc(C(C)(C)C)cc3)cc2n1	18.7	> 100 µM
O=C(NCCNc1nccc(-c2c(-c3cccc(O)c3)nc3sccn23)n1)c1ccccc1O	9.4	48.7 µM
S=C1NCCN1		> 100 µM
N#CC(C#N)=C1C(=Cc2ccc(OCCCCCCCCCCSSCCCCCCCCCCOc3ccc(C=C4C(=C(C#N)C#N)c5ccccc5C4=C(C#N)C#N)cc3)cc2)C(=C(C#N)C#N)c2ccccc21		35.3 µM
Cc1cc(=O)[nH]c2cc3oc4ccccc4c3cc12		> 100 µM
Cc1nnc2n1N=C(c1ccccc1)/C(=C/c1ccc(-c3ccc(Cl)cc3)o1)S2		38.9 µM
O=C1C2=C(SCCS2)C(=O)c2ccccc21		3.17 µM
O=c1cc(-c2cccc(O)c2)[nH]c2cc3c(cc12)OCO3		> 100 µM
COc1cc(C(=O)/C=C/c2sc(Cl)nc2Cl)cc(OC)c1OC	1.76	3.98 µM
COc1cc2nc(-c3ccc(C(F)(F)F)cc3)cc(OCCCN3CCC(O)CC3)c2cc1OC	10.2	22.3 µM
O=C(NC(=S)Nc1ccc(Br)cc1)c1ccc2c(c1)Sc1ccccc1S2		37.2 µM
Cc1cccc2oc3c(CC(=O)O)cccc3c(=O)c12		> 100 µM
COc1cccc(NC(=O)CC(=O)n2nc(C)c(N=Nc3ccccc3)c2C)c1		> 100 µM
